For two molecules, binding results are on record in article PMC10899377.

Chains of the proteins cited; added tags and fusions are not shown.
UniProt P51159: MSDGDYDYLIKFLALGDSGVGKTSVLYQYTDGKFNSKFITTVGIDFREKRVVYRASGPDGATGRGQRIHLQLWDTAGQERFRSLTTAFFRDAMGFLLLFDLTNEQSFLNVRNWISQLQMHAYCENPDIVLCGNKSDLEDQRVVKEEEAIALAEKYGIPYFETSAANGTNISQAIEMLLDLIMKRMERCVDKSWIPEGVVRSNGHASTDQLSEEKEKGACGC
UniProt P62491: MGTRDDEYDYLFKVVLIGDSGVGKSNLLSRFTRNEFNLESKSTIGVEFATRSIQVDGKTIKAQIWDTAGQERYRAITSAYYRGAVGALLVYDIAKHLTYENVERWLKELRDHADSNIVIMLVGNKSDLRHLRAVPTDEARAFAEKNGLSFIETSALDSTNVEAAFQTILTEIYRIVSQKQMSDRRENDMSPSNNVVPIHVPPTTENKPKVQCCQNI

The target of assay [1] is T1, HA-VPS33B-3 (aa1-566) (UniProt Q9H267).
T1 sequence: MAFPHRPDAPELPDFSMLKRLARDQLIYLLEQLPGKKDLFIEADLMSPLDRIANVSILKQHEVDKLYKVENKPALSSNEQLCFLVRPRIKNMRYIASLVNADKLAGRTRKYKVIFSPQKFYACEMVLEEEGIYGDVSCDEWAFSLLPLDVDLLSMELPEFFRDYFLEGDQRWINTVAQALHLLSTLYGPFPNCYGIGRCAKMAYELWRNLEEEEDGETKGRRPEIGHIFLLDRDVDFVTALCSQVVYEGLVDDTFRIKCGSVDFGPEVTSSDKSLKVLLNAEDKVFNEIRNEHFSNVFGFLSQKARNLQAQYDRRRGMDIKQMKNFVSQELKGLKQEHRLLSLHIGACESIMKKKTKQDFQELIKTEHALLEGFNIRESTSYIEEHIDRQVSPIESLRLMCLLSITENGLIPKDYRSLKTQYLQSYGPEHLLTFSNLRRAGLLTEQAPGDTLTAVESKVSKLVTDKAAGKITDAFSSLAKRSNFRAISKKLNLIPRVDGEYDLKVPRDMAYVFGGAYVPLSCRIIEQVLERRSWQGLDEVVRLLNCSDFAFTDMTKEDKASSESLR
The assay can be described thus: co-IP; HEK293T cells co-transfected with HA-VPS33B and Flag-ANGPTL2 plasmids; Pierce IP lysis buffer; lysates immunoprecipitated with anti-HA (plus Protein A/G agarose) or anti-Flag M2 beads overnight at 4 °C; beads washed ten times; Western blot. For orientation: Immunoblotting shows a protein as a band on a membrane.

The target of assay [2] is T2, HA-VPS33B-2 (aa1-304) (UniProt Q9H267).
T2 sequence: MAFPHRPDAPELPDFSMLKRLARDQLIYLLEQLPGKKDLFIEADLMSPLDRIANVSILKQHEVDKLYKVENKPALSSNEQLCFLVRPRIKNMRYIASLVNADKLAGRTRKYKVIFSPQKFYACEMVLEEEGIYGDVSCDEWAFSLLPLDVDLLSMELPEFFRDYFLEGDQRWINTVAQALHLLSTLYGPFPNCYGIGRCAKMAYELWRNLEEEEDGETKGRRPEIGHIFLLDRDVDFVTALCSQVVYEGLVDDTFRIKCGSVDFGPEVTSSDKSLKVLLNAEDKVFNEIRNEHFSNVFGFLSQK
Described as above.

In assay [3] the target is T3, HA-VPS33B-1 (aa1-146) (UniProt Q9H267).
T3 sequence: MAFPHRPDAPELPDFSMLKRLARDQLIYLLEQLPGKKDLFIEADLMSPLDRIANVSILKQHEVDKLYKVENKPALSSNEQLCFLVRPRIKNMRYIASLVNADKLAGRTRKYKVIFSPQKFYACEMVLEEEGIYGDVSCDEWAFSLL
Described as above.

Assay [4] concerns the target T4, HA-VPS33B-5 (aa304-617) (UniProt Q9H267).
T4 sequence: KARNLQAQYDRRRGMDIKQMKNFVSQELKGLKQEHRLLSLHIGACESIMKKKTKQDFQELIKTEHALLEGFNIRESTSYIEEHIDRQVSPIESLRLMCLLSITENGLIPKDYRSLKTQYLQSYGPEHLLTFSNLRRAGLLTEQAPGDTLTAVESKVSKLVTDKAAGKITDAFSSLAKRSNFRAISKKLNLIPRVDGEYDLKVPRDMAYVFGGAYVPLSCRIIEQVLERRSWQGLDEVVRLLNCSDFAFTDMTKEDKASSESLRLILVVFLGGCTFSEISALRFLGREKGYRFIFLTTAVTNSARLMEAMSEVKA
Described as above.

The target of assay [5] is T5, HA-VPS33B-4 (aa146-615) (UniProt Q9H267).
T5 sequence: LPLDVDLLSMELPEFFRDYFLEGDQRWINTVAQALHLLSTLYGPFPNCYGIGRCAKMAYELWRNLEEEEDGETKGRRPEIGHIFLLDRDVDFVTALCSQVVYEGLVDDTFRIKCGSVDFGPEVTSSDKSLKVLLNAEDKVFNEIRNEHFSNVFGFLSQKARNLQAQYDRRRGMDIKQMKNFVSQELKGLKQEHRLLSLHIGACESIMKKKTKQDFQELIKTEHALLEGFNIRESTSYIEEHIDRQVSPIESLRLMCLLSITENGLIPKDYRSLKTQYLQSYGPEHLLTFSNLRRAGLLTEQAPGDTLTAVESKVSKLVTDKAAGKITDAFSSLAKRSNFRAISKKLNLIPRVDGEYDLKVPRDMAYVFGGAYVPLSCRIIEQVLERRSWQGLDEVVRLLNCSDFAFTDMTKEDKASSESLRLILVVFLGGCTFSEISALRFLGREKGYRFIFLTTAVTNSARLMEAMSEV
The assay is described as above.

In assay [6] the target is T6, HA-VPS33B-WT (full-length vacuolar protein sorting 33b) (UniProt Q9H267).
T6 sequence: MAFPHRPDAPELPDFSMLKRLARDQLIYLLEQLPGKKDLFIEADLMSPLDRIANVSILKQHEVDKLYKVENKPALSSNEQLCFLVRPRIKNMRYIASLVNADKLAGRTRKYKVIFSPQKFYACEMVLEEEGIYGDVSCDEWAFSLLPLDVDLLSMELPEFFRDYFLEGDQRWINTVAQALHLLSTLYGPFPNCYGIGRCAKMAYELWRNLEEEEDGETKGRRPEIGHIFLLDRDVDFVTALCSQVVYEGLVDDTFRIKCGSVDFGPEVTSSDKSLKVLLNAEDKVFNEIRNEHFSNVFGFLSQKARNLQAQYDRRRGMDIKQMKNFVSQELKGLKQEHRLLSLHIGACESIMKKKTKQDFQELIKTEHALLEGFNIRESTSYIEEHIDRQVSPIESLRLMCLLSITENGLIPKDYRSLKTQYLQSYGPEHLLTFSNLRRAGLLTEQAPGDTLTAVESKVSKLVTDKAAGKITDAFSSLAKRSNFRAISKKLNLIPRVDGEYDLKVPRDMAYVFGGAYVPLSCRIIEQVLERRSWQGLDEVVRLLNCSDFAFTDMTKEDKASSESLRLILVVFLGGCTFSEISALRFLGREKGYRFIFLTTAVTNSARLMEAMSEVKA
The description is as above.

Assay [7] deals with T7, GDI2 (UniProt P50395).
T7 sequence: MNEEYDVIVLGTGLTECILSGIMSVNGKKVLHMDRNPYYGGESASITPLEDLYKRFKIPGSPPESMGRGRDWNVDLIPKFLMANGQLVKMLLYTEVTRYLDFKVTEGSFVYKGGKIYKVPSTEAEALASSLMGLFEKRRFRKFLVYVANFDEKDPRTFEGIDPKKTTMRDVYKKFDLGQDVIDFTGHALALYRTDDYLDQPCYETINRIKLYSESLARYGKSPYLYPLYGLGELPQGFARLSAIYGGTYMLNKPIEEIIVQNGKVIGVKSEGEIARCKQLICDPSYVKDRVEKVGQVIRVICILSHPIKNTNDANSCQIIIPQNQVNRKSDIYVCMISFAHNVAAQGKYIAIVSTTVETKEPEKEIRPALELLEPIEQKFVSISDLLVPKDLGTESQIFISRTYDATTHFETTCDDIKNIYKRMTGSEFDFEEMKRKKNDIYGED
Nature of the assay: co-IP; immunoprecipitation of WT ANGPTL2 or ANGPTL2 mutants with GDI2, RAB27A or RAB11A; HEK293T lysates; anti-HA or anti-Flag M2 beads, 4 °C; Western blot; which side was precipitated is not told.

Assay [8] addresses RAB27A (UniProt P51159). The description is as above.
The target of assay [9] is RAB11A (UniProt P62491). Described as above.

Residue numbers refer to the chain shown, from its start. Numbers in names are those of the source. No constants are given. Whether binding was seen depends on the method and setting. Binding seen in cells or lysates may run through a third protein. Some results given as binding are weak or reduced against the parent protein; the word gives no strength. Where a sequence is shown, tags or fusion partners need not be part of it.

B1: Flag-ANGPTL2 (angiopoietin-like protein 2, wild type) (protein, UniProt Q9UKU9 23-493)
chain: QEDGFEGTEEGSPREFIYLNRYKRAGESQDKCTYTFIVPQQRVTGAICVNSKEPEVLLENRVHKQELELLNNELLKQKRQIETLQQLVEVDGGIVSEVKLLRKESRNMNSRVTQLYMQLLHEIIRKRDNALELSQLENRILNQTADMLQLASKYKDLEHKYQHLATLAHNQSEIIAQLEEHCQRVPSARPVPQPPPAAPPRVYQPPTYNRIINQISTNEIQSDQNLKVLPPPLPTMPTLTSLPSSTDKPSGPWRDCLQALEDGHDTSSIYLVKPENTNRLMQVWCDQRHDPGGWTVIQRRLDGSVNFFRNWETYKQGFGNIDGEYWLGLENIYWLTNQGNYKLLVTMEDWSGRKVFAEYASFRLEPESEYYKLRLGRYHGNAGDSFTWHNGKQFTTLDRDHDVYTGNCAHYQKGGWWYNACAHSNLNGVWYRGGHYRSRYQDGVYWAEFRGGSYSLKKVVMMIRPNPNTFH
Take B1: the binding result in [1] is “binds”; in [2] it was “binds”; in assay [3], “binds”; in assay [4] it was “no binding”; in assay [5] it was “no binding”; in assay [6], “binds”. Besides, the binding entry in assay [7], in assay [8] and in [9] was “binds” throughout.

B2: ANGPTL2-Mut#2 (R399H and G402S), FLAG-tagged (protein, UniProt Q9UKU9 23-493)
chain: B1 chain with R377H, G380S
Regarding B2, the binding result in assay [6] and in [9] was “binds” in each case.
